This passage reports survival results from PubChem BioAssay AID463173 (ICCB-Longwood Screening Facility, Harvard Medical School, 2010).

Screen size: about 52,000 compounds; about 4,300 (8.3%) were called active. No stated cut-off is given here; in the data, active means survival mostly below about 52% (no sharp cut-off); inactive means mostly above about 56%. This is one part of the list.

This test relates to DeltatarO mutant. Kind of test: growth inhibition of S. aureus wild type versus tarO mutant, primary screen, teichoic acid synthesis inhibitors, RN4220, OD600 (AID 463173). As to conditions: OD600, 18 h, stronger effect = lower value, screened at 18.75 µg/mL (by protocol).
Take `N#Cc1ccc(C(=O)Nc2cc3nn(-c4ccccc4)nc3cc2Cl)c(F)c1`: the survival was inactive: 137%. Under `CC(C)Oc1ccc(C2CC(=O)N(Nc3ccccc3)C2=O)cc1` (centres undefined) stands inactive: 98%. As to `CCCC(=O)NCC1(N(C)C)CCCCC1`, the survival is inactive: 88%. In the case of `CCOC(=O)C1CCN(S(=O)(=O)c2cc(Br)cc3c2N(C(=O)CC)CC3)CC1` it was inactive: 66%; in that of `O=C(c1cc2nc(-c3ccccc3)cc(-c3ccccc3)n2n1)N1CCCC1`, inactive: 85%; in that of `CC(C)CC(=O)Nc1cccc(-c2nc3ccccc3[nH]2)c1`, inactive: 68%. In the case of `CCC1=Nc2cc(C(=O)NCCCOC)ccc2Sc2ccc(Br)cc21` it was inactive: 50%. On to `COc1ccccc1CNc1nc(-c2ccco2)nn1S(=O)(=O)c1ccc2ccccc2c1`, for which the survival was inactive: 105%. In the case of `COCC(=O)N(CCc1ccccc1)Cc1cc2cccc(C)c2n2nnnc12`, the survival was inactive: 100%.

`O=C(c1cn(CC(=O)N2CCOCC2)c2ccccc12)C1CC1`: the survival is inactive: 90%. As for `COC(=O)C1(c2ccccc2)NC(c2cccs2)C2C(=O)N(C)C(=O)C21` (centres undefined), the survival is inactive: 82%.

Consider `Cc1ccccc1C(=O)Nc1sc2c(c1C(=O)NCc1ccco1)CCC(C(C)(C)C)C2` (centres undefined), for which the survival is inactive: 109%. Under `CNC(=O)C1CCC(Cn2c(=O)c3sccc3n(CC(=O)NCc3ccccc3)c2=O)CC1` (centres undefined) stands active: 32%; under `Cc1ccc(S(=O)(=O)NC(=O)NC(C)(C)C)cc1`, inactive: 74%. Under `Cc1ccc(SCCNC(=O)CN(c2ccccc2)S(=O)(=O)N(C)C)cc1` stands inactive: 64%. Under `COC(=O)c1ccc(NC(=O)CSc2nc(=O)[nH]c3c2CCCC3)cc1` stands inactive: 75%; under `CCOC(=O)COc1ccc([N+](=O)[O-])cc1-c1ccnc2cc(-c3ccc(Cl)cc3)nn12`, inactive: 89%. Regarding `O=C(O)C1C(c2ccccc2)C(C(=O)N2CCCCC2)C1c1ccccc1` (centres undefined), the survival was inactive: 101%.

As to `CCc1ccc(CN(Cc2ccco2)c2cnc(S(C)(=O)=O)nc2C(=O)Nc2cccc(C)c2)cc1`, the survival was inactive: 46%. In the case of `CN(C)c1ccc(C(CNC(=O)c2ccccc2)N2CCc3ccccc32)cc1` (centres undefined) it was inactive: 115%; in that of `CCOC(=O)c1cnc2[nH]c3ccccc3n2c1=O`, inactive: 99%.

Regarding `COc1ccc(-c2ccc(NS(=O)(=O)c3ccc(OC)c(OC)c3)cc2)nn1`, the survival was inactive: 83%.

Turning to `CCOc1sc2nc(C)n(CC(=O)Nc3cccc(C)c3)c(=O)c2c1C`, the survival was inactive: 122%. As to `Cc1nn(-c2ccccc2)c2sc(C(=O)N/N=C/c3ccccc3)cc12`, the survival was inactive: 110%. Under `COC(=O)c1ccccc1NC(=O)c1c(C)oc2ncn(C)c(=O)c12` stands inactive: 104%. Under `COc1ccc(OCc2nc3ccccc3n2Cc2ccccc2Cl)cc1` stands active: 39%. On to `Cc1ccccc1-c1nnc(NC(=O)CC(C)C)s1`, for which the survival was inactive: 91%. As to `CCC(=O)N1CCc2cc(Br)cc(S(=O)(=O)N3CCCC(C(=O)Nc4ccc(C(C)C)cc4)C3)c21` (centres undefined), the survival is inactive: 108%. In the case of `CCN1CCc2nc3sc(C(=O)Nc4cccc(Cl)c4C)c(N)c3cc2C1` it was inactive: 125%.

With `O=C(Nc1cccc(-c2nnn(CC(=O)N3CCc4ccccc4C3)n2)c1)C1CCC1`, the survival was inactive: 78%. In the case of `O=c1cc(CSc2ccc(Cl)cc2)[nH]c(=S)[nH]1` it was inactive: 78%; in that of `CCc1cnc2c(c1SCC(=O)c1ccccc1)c(=O)n(C)c(=O)n2C`, inactive: 73%. In the case of `O=S(=O)(c1ccc(Br)cc1)c1nnn2c1nc(N1CCOCC1)c1sccc12` it was inactive: 73%; in that of `C/C(=N/OC(=O)c1ccccc1)c1cccs1`, inactive: 78%. With `CCN1CCN(CCCNC(=O)c2cnn(-c3ccc(C)cc3C)c2C2CCN(C(=O)OC(C)(C)C)CC2)CC1`, the survival was inactive: 144%. Consider `NC(=O)c1nc(-c2ccc(F)c(F)c2)nc2c1[nH]c(=O)n2-c1cccc(Cl)c1`, for which the survival was inactive: 86%.

For the molecule `O=C(COC(=O)c1cc(-c2ccccc2)nc2ccccc12)c1ccc(Br)cc1`, the survival is inactive: 53%.

Consider `COc1ccc(N2CCN(CC(=O)c3ccc(OC)c(OC)c3)CC2)cc1`, for which the survival is inactive: 68%. Under `Cc1ccc(CNS(=O)(=O)c2cc3[nH]c(=O)c(=O)[nH]c3cc2C)cc1` stands active: 47%; under `Cc1cn2c(=O)cc(COc3ccccc3NC(=O)c3ccco3)nc2s1`, inactive: 87%; under `Cc1c(C(=O)NCc2cccc(Cl)c2)sc2nc3n(c(=O)c12)CCC3`, inactive: 112%.

With `COc1cc(N(C(=O)c2ccco2)C(C(=O)NC2CCCC2)c2ccc(C)cc2)ccc1-n1cnnn1` (centres undefined), the survival is inactive: 95%.

With `Cc1ccc(-c2nc(C)c(CCNC(=O)C(=O)Nc3ccc4c(c3)OCCO4)s2)cc1`, the survival was inactive: 83%.

In the case of `CC1=NCC(=O)Nc2cc3c(cc21)OCCO3`, the survival was inactive: 105%.

As for `CCCOc1ccc(C(=O)Nc2cccc(-c3nc4ccccc4[nH]3)c2)cc1`, the survival was active: 28%. Under `CCOc1cc(CN2CCN(CC3CC4C=CC3C4)CC2)ccc1OC` (centres undefined) stands inactive: 98%. In the case of `CN1CCN(c2ncnc3c2cnn3-c2ccccc2)CC1` it was inactive: 83%; in that of `Cc1ccc(NC(=O)Cn2c(=O)n(Cc3ccccc3)c(=O)c3c(C)c(C)sc32)c(C)c1`, inactive: 95%; in that of `CCC(Cc1ccccc1)NC(=O)c1ccc2nc(N3CCC(C)CC3)sc2c1` (centres undefined), inactive: 68%. In the case of `CCc1ccccc1NC(=O)C1=CC(c2ccc(OC)c(OC)c2)=NS(=O)(=O)N1C` it was inactive: 79%; in that of `Cc1cccc(C)c1OCC(=O)NCC1(N2CCOCC2)CCCCC1`, inactive: 66%; in that of `CC1CCCN(c2csc3ccc(F)cc3c2=O)C1` (centres undefined), inactive: 67%.

Turning to `COc1ccc(OC(=O)c2nc(SCc3ccc(C)cc3)ncc2Cl)cc1`, the survival was inactive: 57%.

On to `Cc1ccc(C(C)C)c(OCC(=O)Nc2c(C(=O)c3ccccc3)oc3ccccc23)c1`, for which the survival is inactive: 78%. In the case of `COc1ccc(-n2nc3ccc(NC(=O)c4cc5ccccc5o4)cc3n2)cc1Cl` it was inactive: 159%; in that of `CCOc1ccc(CNC(=O)C2CCCN(c3nc4c(C)cc(C)cc4s3)C2)cc1` (centres undefined), inactive: 88%. On to `CCC(CC)C(=O)Nc1cccc(-c2nc3cccnc3s2)c1C`, for which the survival was inactive: 114%. As to `CCc1ccc(-c2nn(CC(=O)NC3CCCC3)c3c2cnc2ccc(C)cc23)cc1`, the survival was active: 37%. As to `CC1(C)O[C@H]2[C@@H](O1)[C@@H](C(=O)Nc1ccccc1O)O[C@@H]1OC(C)(C)O[C@@H]12`, the survival is inactive: 130%.
